# In PubChem BioAssay AID485344 (National Center for Advancing Translational Sciences (NCATS), 2010):
# Hit rate of the full screen: of about 340,000 compounds, about 6,900 (2%) were called active. Rule as the data show it: active = inhibition above about 30%; inactive = below that, where a call was filed. The list shows a part of the results, in another mix than the full data. The source gives no active or inactive call for entries shown without one.
# Target: D(2) dopamine receptor (Homo sapiens) (UniProt P14416)
# Sequence of UniProt P14416 (P14416 whole entry, looked up): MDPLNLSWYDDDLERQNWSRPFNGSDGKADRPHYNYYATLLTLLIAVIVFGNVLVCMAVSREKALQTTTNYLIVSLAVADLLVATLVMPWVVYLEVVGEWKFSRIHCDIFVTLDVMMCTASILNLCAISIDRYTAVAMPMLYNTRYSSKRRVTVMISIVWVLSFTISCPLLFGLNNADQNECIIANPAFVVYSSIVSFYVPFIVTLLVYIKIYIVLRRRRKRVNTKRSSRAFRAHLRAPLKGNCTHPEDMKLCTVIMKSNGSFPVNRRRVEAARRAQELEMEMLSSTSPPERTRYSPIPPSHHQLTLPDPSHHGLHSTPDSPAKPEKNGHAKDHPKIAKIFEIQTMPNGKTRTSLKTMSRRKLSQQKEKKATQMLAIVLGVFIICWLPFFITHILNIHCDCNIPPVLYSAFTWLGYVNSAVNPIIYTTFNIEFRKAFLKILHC
# Experiment: HTS Assay for Allosteric Antagonists of the Human D2 Dopamine Receptor: Primary Screen for Antagonists; also: 0% is about no effect
# Details: HEK293 TREx D2 cells, calcium flux, dopamine EC80; at 10 µM; stronger effect = higher value
# How it was run: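 HEK293 T-REx D2 cells, tet-induced, calcium dye no-wash. Cpd pintool add, 180 s kinetic, then EC80 DA, 180 s kinetic. Ca flux read.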
row,SMILES,inhibition
1,COc1cn(CC(=O)Nc2cc(C)cc(C)c2)c(CN2CCCCC2)cc1=O,4.58%
2,O=S(=O)(Cc1ccc(Cl)cc1)c1ccccc1-c1nnc(-c2ccccc2)o1,active: 54.9%
3,COc1cccc(-c2nnc(SCC(=O)N(C)C3CCCCC3)o2)c1,-8.98%
4,CCc1cc(C(=O)NNC(=O)CCN2CCN(c3ccccc3)CC2)sc1C,active: 66.4%
5,CN1CCc2nc3sc(C(=O)c4ccc(F)cc4)c(N)c3cc2C1,9.89%
6,CCOc1ccccc1CNCc1c(C(=O)O)c(C)n(Cc2ccc(C)cc2)c1C,0.42%
7,CN1C(=O)c2cccc3c(S(=O)(=O)Nc4cccc(C(=O)O)c4)ccc1c23,-18.1%
8,CCOc1ccc(CCNC(=O)Cn2c(-c3cccs3)cc3ccccc32)cc1,11.3%
9,O=C(Nc1cc(Cl)cc(Cl)c1)c1cc(S(=O)(=O)NC2CCCC2)ccc1F,10.2%
10,Cc1cccc(N2CCN(C(=O)C3CCN(C(=O)c4cc5sccc5n4C)CC3)CC2C)c1 (configuration not stated),-3.21%
11,CCOc1ccc2nc(Cl)c(C3CC(c4ccc(C)cc4)=NN3C(=O)CCC(=O)O)cc2c1 (configuration not stated),14.5%
12,COc1ccc(CN(C)c2ccc(-c3nc(-c4ccc(OC)c(OC)c4)no3)cc2[N+](=O)[O-])cc1,4.63%
13,Cc1c(Cl)cccc1NC(=O)CCS(=O)(=O)c1ccc2c(c1)CC(C)N2C(=O)C1CC1 (configuration not stated),3.95%
14,COc1ccc(N(C(=O)c2ccccc2C)S(=O)(=O)c2ccc(Cl)cc2)cc1,-4.13%
15,Nc1ncc(S(=O)(=O)NCc2ccccc2)cn1,4.8%
16,COc1cc(S(=O)(=O)NCCc2c(C)[nH]c3ccc(C)cc23)ccc1Br,13.2%
17,COc1ccc(C(=O)c2cn(Cc3ccccc3)c3ccccc3c2=O)cc1OC,27.4%
18,CN1C(C(=O)Nc2cccc(O)c2)=CC(c2cccs2)=NS1(=O)=O,-21.4%
19,COc1ccc(C)cc1NC(=O)CSc1nnc(-c2cc3cccc(OC)c3o2)n1N,active: 35.1%
20,Cc1cccc(NC(=O)c2ccc(F)c(S(=O)(=O)NCc3ccco3)c2)c1,active: 33%
21,O=C(NCCc1nc2ccccc2n1Cc1ccccc1F)c1ccc(F)cc1,-13.9%
22,Cc1ccc(NC(=O)CCc2nnc3ccc(N4CCC(C)CC4)nn23)nc1,active: 32%
23,CCOc1ccc(CCNC(=O)c2cnc3c(-c4ccc(F)cc4)c(C)nn3c2C)cc1,12.3%
24,Cc1ccc(C)c(NC(=O)C(=O)NCCCN2CCOCC2)c1,-10.8%
25,CCOc1ccccc1NC(=O)COC(=O)CC(C)(C)CC1=NS(=O)(=O)c2ccccc2N1,-3.69%

row,SMILES,inhibition
1,Cc1onc(-c2ccccc2Cl)c1C(=O)Oc1ccc(Cl)cc1Cl,6.66%
2,CCOc1ccc(-n2ccnc2SCC(=O)Nc2cc(C)ccc2C)cc1,-4.7%
3,COc1cccc(-n2c(SCc3cccc(C)c3)nc3c([nH]c4ccccc43)c2=O)c1,11.4%
4,CC(C)CCNC(=O)c1cnc2sc(N3CCCCCC3)nn2c1=O,4.58%
5,Cc1ccc(O)c(NC(=O)c2cc(-c3ccc(F)cc3)no2)c1,-24.3%
6,COc1ccc(CNC(=O)c2ccc(Cn3c(=O)c4cccn4c4cccnc43)cc2)c(OC)c1,-0.543%
7,COc1ccc(-n2nc3c(N4CCC(C(=O)N5CCC(C)CC5)CC4)nnc(C)c3c2C)cc1,2.8%
8,COc1ccccc1Nc1nc(C)nc(N)c1S(=O)(=O)c1ccccc1,3.1%
9,CCN(CC)S(=O)(=O)c1ccc2c(c1)nc(CN(C)C(=O)Nc1ccc(C)c(Cl)c1)n2C,5.23%
10,Cc1nc2c3cccnc3nn2c(C)c1CCC(=O)NCc1ccccc1,4.68%
11,CCc1ccc(NC(=O)C(=O)NCC(c2ccc3c(c2)OCO3)N2CCN(C)CC2)cc1 (configuration not stated),-1.24%
12,COc1ccc(Nc2ncc(C(=O)Nc3cccc(Cl)c3)c3ccccc23)cc1,1.7%
13,Cc1ccc(OCC(=O)NCC2(N3CCN(C)CC3)CCCCC2)cc1,-15.3%
14,COc1ccc(-c2nc(CNC(=O)Nc3ccccc3)c(C)o2)c(OC)c1,-5.96%
15,CCN1CCN(CCCNC(=O)Cn2c(-c3cccs3)cc3cc(Cl)ccc32)CC1,6.44%
16,COc1ccccc1CNC(=O)CCc1c(C)c2cc3c(C)coc3cc2oc1=O,10.4%
17,CCn1ccc2c(OCC(=O)Nc3ccc(OC)cc3OC)cccc2c1=O,-14.2%
18,CCC(=O)N1c2ccccc2CC1C(=O)NCCCN1CCN(c2ccc(OC)cc2)CC1 (configuration not stated),3.86%
19,CCn1cc(C(=O)NCCC(C)C)c(=O)c2cc(S(=O)(=O)N(C)C3CCCCC3)ccc21,-7.81%
20,O=S(=O)(Nc1ccc(O)c(Sc2nc3ccccc3s2)c1)c1cc(Cl)ccc1Cl,6.96%
21,O=C(Cn1c(-c2cccs2)cc2cc(F)ccc21)NCCc1ccc(Cl)cc1,13.5%
22,CC1CCCCN1c1cc2c(cc1F)c(=O)c(S(=O)(=O)c1ccccc1)cn2Cc1ccccc1 (configuration not stated),-2.88%
23,Cc1c(Cl)cccc1NC(=O)C(=O)NCCc1csc2nc(-c3ccccc3F)nn12,23.3%
24,CCCCOc1ccc(CNC(=O)c2cnc3sc(N4CCCC4)nn3c2=O)cc1,4.81%
25,Cc1ccc(Cl)cc1N1CCN(C(=O)c2ccc3c(Cl)c4c(nc3c2)CCCC4)CC1,-12%

row,SMILES,inhibition
1,CC1CCC(NC(=O)c2ccc(CSc3nc4ccncc4n3Cc3ccc(F)cc3)cc2)CC1 (configuration not stated),0.554%
2,COc1ccc(-n2c(SCCC(C)C)nc3sc4c(c3c2=O)CC(C(C)C)OC4)cc1 (configuration not stated),11.3%
3,Cc1nn(CCCC(=O)Nc2ccccc2C(F)(F)F)c(=O)c2nn(-c3ccccc3)c(C)c12,4.9%
4,Cc1nn2c(-c3ccccc3)cc(-c3ccccc3)nc2c1-c1ccc(Cl)cc1,-9.22%
5,Cc1cc(C)n2nc(CNC(=O)c3ccc(Cl)cc3)nc2n1,-3.95%
6,O=C(Nc1ccccc1)c1cccc(N2CCCS2(=O)=O)c1,-0.275%
7,COc1ccc(C(CC(=O)Nc2ncccc2C)N2Cc3ccccc3C2=O)cc1OC (configuration not stated),-13.7%
8,CCc1ccc(NC(=O)c2cc(S(=O)(=O)NC3CCCCCC3)ccc2F)cc1,4.73%
9,Cc1nn(-c2ccccc2)c2c1N(CCCC(=O)NC(C)c1ccccc1)C(=O)CS2 (configuration not stated),7.85%
10,COc1cc(OC)cc(C(=O)N2CCN(C(=O)c3cccc(F)c3)CC2)c1,active: 30.8%
11,Cc1nn(-c2ccccc2)c2c1N(CC(=O)N1CCN(c3ccc(Cl)cc3)CC1)C(=O)CS2,-0.655%
12,CCc1ccc(CNC(=O)CCn2nc(C)c3c(C)n(-c4ccccc4)nc3c2=O)cc1,-1.91%
13,Cc1ccc(S(=O)(=O)c2cn(Cc3ccccc3)c3cc(N4CCOCC4)c(F)cc3c2=O)cc1,12.8%
14,COc1cc(NC(=O)c2noc3c2CC(C)CC3)c(OC)cc1Cl (configuration not stated),-3.66%
15,CC(=O)c1cccc(NS(=O)(=O)c2c(C(=O)N3CCCCCC3)c(C)n(C)c2C)c1,5.83%
16,COc1ccc2c(c1)c(N1CCCC1=O)c(C(=O)Nc1ccc(OC)c(Cl)c1)n2C,9.76%
17,CCOc1ccc(CNC(=O)Cn2c(=O)c3cccn3c3cccnc32)cc1,-0.357%
18,COc1ccc(NC(=O)[C@H](Cc2ccccc2)N2Cc3ccccc3C2=O)cc1OC,-5.83%
19,COc1cccc(NC(=O)Cn2c(=O)n(Cc3ccc4c(c3)OCO4)c(=O)c3oc4ccccc4c32)c1,11.2%
20,CCCn1c(SCC(=O)N2CCN(C(=O)c3ccco3)CC2)nc2ccccc2c1=O,active: 30.8%
21,Cc1ccc(-n2ncc(C(=O)NCCN3CCN(C)CC3)c2C2CCN(C(=O)OC(C)(C)C)CC2)cc1C,-9.25%
22,CCN(CC)C(=O)C1=C(C)Nc2nc3ccccc3n2C1c1cccc(OC)c1 (configuration not stated),-8.47%
23,Cc1cc(=O)[nH]c(N/N=C/c2ccc(-c3ccc(F)cc3)o2)n1,active: 48.3%
24,COc1ccc([N+](=O)[O-])cc1NC(=O)Cn1ccsc1=N,active: 30.8%
25,O=C(Nc1ccccc1C(F)(F)F)c1ccc(F)c(S(=O)(=O)N2CCc3ccccc3C2)c1,13.7%

row,SMILES,inhibition
1,Cc1ccc(-n2c(C)cc(/C=C(\C#N)C(=O)Nc3ccc(C)c(C)c3)c2C)cc1,-5.98%
2,CCc1ccc(OCC(=O)N(Cc2ccc(C(C)C)cc2)C2CCS(=O)(=O)C2)cc1 (configuration not stated),-19.1%
3,CCCOc1ccc(C2C(=O)N(C3CCC(C)CC3)CC(=O)N2CCc2ccccc2)cc1OC (configuration not stated),-1.38%
4,CNCCOc1ccccc1-c1ccccc1,active: 45%
5,Cc1ccc(-c2noc(CNC(=O)c3ccc(C)c(Cl)c3)n2)cc1,4.47%
6,Cc1ccc(CN2CCN(/N=C/c3cccn3C)CC2)c(C)c1,active: 51.4%
7,COc1c(Br)cc(Br)cc1/C=N/NC(=O)c1ccncc1,active: 93.5%
8,CCc1cccc(NC(=O)C2CCN(S(=O)(=O)c3ccc4c(c3)CC(C)N4C(C)=O)CC2)c1 (configuration not stated),active: 70.1%
9,O=C(NCc1ccccc1Cl)c1nnc(Cc2cccc(F)c2)o1,9.73%
10,Cc1ccc2c(CC(=O)N(Cc3ccc(N(C)C)cc3)Cc3ccco3)coc2c1C,1.9%
11,N#Cc1ccccc1CSc1nnc(-c2ccc(Br)cc2)o1,-6.39%
12,Cc1ccc(CNC(=O)Cn2ccn(-c3cccc(Cl)c3)c(=O)c2=O)cc1,9.81%
13,O=C1CSC2(C(=O)N(Cc3cccc(C(F)(F)F)c3)c3ccccc32)N1c1ccc(F)c(F)c1 (configuration not stated),-2.36%
14,Cc1cccc2nc(-c3ccccn3)c(Nc3ccccc3)n12,0.0317%
15,CC(C)Cn1cc(NC(=O)N2CCN(c3cccc(C(F)(F)F)c3)CC2)c2ccccc2c1=O,9.71%
16,COc1ccc(CNC(=O)c2c(O)nc3c(C)cccn3c2=O)cc1,4.08%
17,CCCCOC(=O)c1ccc(-n2nnc3c(sc4nc(C)cc(C)c43)c2=O)cc1,6.89%
18,O=C(Nc1ccc(Cl)cc1)NC1CCCC1Cc1ccco1 (configuration not stated),active: 53.4%
19,O=S(=O)(NCCc1nnc2ccc(SCc3ccccc3Cl)nn12)c1ccccc1,-3.27%
20,Cc1cc(N2CCC(C)CC2)nc2ccc(NC(=O)Cc3ccccc3Br)cc12,-8.86%
21,COc1cc2nc(Nc3cccc(F)c3)nc(N)c2cc1OC,-2.61%
22,CCOc1ccc(-c2nc(-c3ccccc3)c(-c3ccccc3)[nH]2)cc1OCC,-19.9%
